# The supplement of paper PMC4604168 (melanoma cell lines)
# The other results are listed elsewhere or left out. Most values come without repeats; read them as rough.
# Experiments:
# Test in all cases: cell count relative to DMSO control; melanoma cells; higher = more viable cells
# Conditions in all cases: library dose: low library concentration; 72 h
# MZ2-MEL = system: MZ2-MEL
# MeWo = system: MeWo
# RPMI7951 = system: RPMI7951
# RVH-421 = system: RVH-421
# SkMel28 = system: SkMel28
# SkMel2 = system: SkMel2
# SkMel30 = system: SkMel30
# SkMel5 = system: SkMel5
# UACC257 = system: UACC257
# UACC62 = system: UACC62
# WM115 = system: WM115
# WM1716 = system: WM1716
# WM1745 = system: WM1745
# WM3526 = system: WM3526
# WM3619 = system: WM3619
# WM451Lu = system: WM451Lu
# 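Note: cell number obtained by counting DAPI-stained nuclei in high-throughput microscope images with image analysis software, screen run in 1,536-well plates.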
Compound,cell count (MZ2-MEL),cell count (MeWo),cell count (RPMI7951),cell count (RVH-421),cell count (SkMel28),cell count (SkMel2),cell count (SkMel30),cell count (SkMel5),cell count (UACC257),cell count (UACC62),cell count (WM115),cell count (WM1716),cell count (WM1745),cell count (WM3526),cell count (WM3619),cell count (WM451Lu)
"Nc1ccn([C@@H]2O[C@H](CO)[C@@H](O)C2(F)F)c(=O)n1 [gemcitabine] + COc1ccc(COc2ccc(Cc3cnc(N)nc3N)cc2OC)cc1 [GW2580] (first compound 0.0004 µM, partner dose 1 µM)",101%,107%,102%,95.4%,95.9%,107%,122%,101%,87.2%,106%,94.6%,102%,77.1%,92.4%,59.3%,98%
"Nc1nc(F)nc2c1ncn2[C@@H]1O[C@H](CO)[C@@H](O)[C@@H]1O [fludarabine] + CN(NC(=O)CC(=O)NN(C)C(=S)c1ccccc1)C(=S)c1ccccc1 [STA4783] (first compound 0.2 µM, partner dose 0.006 µM)",93.3%,24.3%,101%,86.4%,93.1%,4.29%,19.8%,59.2%,88%,74.1%,73.9%,75.7%,46.4%,22%,52%,50.8%
"CC(=O)O[C@@]12CO[C@@H]1C[C@H](O)[C@@]1(C)C(=O)[C@H](O)C3=C(C)[C@@H](OC(=O)[C@H](O)[C@@H](NC(=O)OC(C)(C)C)c4ccccc4)C[C@@](O)([C@@H](OC(=O)c4ccccc4)[C@H]21)C3(C)C [Docetaxel] + CCc1ccc(CCOc2ccc(CC3SC(=O)NC3=O)cc2)nc1 [pioglitazone] (first compound 0.0001 µM, partner dose 2 µM)",47.7%,58.4%,50.5%,60.6%,63.2%,47.8%,36.3%,66%,59.2%,44.8%,73.1%,45.9%,47.6%,49.1%,80%,47.3%
"CC(=O)O[C@@]12CO[C@@H]1C[C@H](O)[C@@]1(C)C(=O)[C@H](O)C3=C(C)[C@@H](OC(=O)[C@H](O)[C@@H](NC(=O)OC(C)(C)C)c4ccccc4)C[C@@](O)([C@@H](OC(=O)c4ccccc4)[C@H]21)C3(C)C [Docetaxel] + Cc1cc(N2CCOCC2)cc2[nH]c(-c3c(NC[C@@H](O)c4cccc(Cl)c4)cc[nH]c3=O)nc12 [BMS536924] (first compound 0.0001 µM, partner dose 0.2 µM)",40.1%,44.4%,42.9%,67.7%,30.9%,49.8%,25.5%,63.3%,42%,34.1%,61.5%,34%,39.4%,32.6%,69.6%,53.9%
"CC(=O)c1c(C)c2cnc(Nc3ccc(N4CCNCC4)cn3)nc2n(C2CCCC2)c1=O [palbociclib] + O=c1cc(-c2cccc3c2Sc2ccccc2S3)oc(N2CCOCC2)c1 [KU55933] (first compound 0.04 µM, partner dose 1 µM)",76.9%,68.4%,81.7%,84.4%,70.2%,83.2%,76.7%,73.7%,64%,75%,84.7%,66.1%,76.8%,55.5%,68.8%,56.7%
"CC(=O)O[C@@]12CO[C@@H]1C[C@H](O)[C@@]1(C)C(=O)[C@H](O)C3=C(C)[C@@H](OC(=O)[C@H](O)[C@@H](NC(=O)OC(C)(C)C)c4ccccc4)C[C@@](O)([C@@H](OC(=O)c4ccccc4)[C@H]21)C3(C)C [Docetaxel] + CN(C)S(=O)(=O)c1ccc2c(c1)/C(=C/c1cc3c([nH]1)CCCC3)C(=O)N2 [SU6656] (first compound 0.0001 µM, partner dose 0.4 µM)",43.9%,34.1%,26.5%,66.5%,36.8%,41.4%,31.5%,85.7%,36.4%,47.4%,49.3%,30.7%,38.8%,30.2%,82.5%,59.2%
"Nc1nc(F)nc2c1ncn2[C@@H]1O[C@H](CO)[C@@H](O)[C@@H]1O [fludarabine] + Cn1cncc1[C@@](N)(c1ccc(Cl)cc1)c1ccc2c(c1)c(-c1cccc(Cl)c1)cc(=O)n2C [tipifarnib] (first compound 0.2 µM, partner dose 0.01 µM)",95.3%,30.1%,84.9%,78.7%,54.1%,6.61%,16.2%,53.2%,52.1%,65%,84.7%,63.1%,90.3%,32.3%,73.8%,44.5%
"Nc1ncn([C@H]2C[C@H](O)[C@@H](CO)O2)c(=O)n1 [decitabine] + CCCCCCCCCCCC1=C(O)C(=O)C=C(O)C1=O [Embelin] (first compound 0.1 µM, partner dose 1.2 µM)",88%,93.6%,80.2%,99.1%,89.8%,105%,126%,112%,86.3%,78.4%,73.6%,78.7%,94.6%,121%,79.2%,88.9%
"CC(=O)c1c(C)c2cnc(Nc3ccc(N4CCNCC4)cn3)nc2n(C2CCCC2)c1=O [palbociclib] + NCC(=O)Nc1ccc(-n2nc(C(F)(F)F)cc2-c2ccc3c(ccc4ccccc43)c2)cc1 [OSU03012] (first compound 0.04 µM, partner dose 1 µM)",84.6%,50.2%,73%,90.3%,71%,61.6%,54.8%,68.4%,73.1%,78.7%,66.1%,57.3%,75.6%,50.6%,73.3%,45.8%
"Nc1nc(F)nc2c1ncn2[C@@H]1O[C@H](CO)[C@@H](O)[C@@H]1O [fludarabine] + COc1ccc2c(c1)CCC1C2CCC2(C)C(NCCCCCCN3C(=O)C=CC3=O)CCC12 [U73122] (first compound 0.2 µM, partner dose 0.4 µM)",0.965%,26.7%,74.6%,85.8%,82.3%,4.51%,16.3%,60.2%,85.8%,96.9%,96.5%,81.7%,107%,28.7%,99.9%,42.5%
"CC(=O)O[C@@]12CO[C@@H]1C[C@H](O)[C@@]1(C)C(=O)[C@H](O)C3=C(C)[C@@H](OC(=O)[C@H](O)[C@@H](NC(=O)OC(C)(C)C)c4ccccc4)C[C@@](O)([C@@H](OC(=O)c4ccccc4)[C@H]21)C3(C)C [Docetaxel] + CC1(C)NC(=O)N(c2ccc([N+](=O)[O-])c(C(F)(F)F)c2)C1=O [nilutamide] (first compound 0.0001 µM, partner dose 1 µM)",40.8%,49.2%,41.2%,75.4%,43.5%,40.1%,30.4%,74.9%,48.9%,43.9%,54.4%,33.5%,34.9%,39.8%,96.4%,44.7%
"Nc1ccn([C@@H]2O[C@H](CO)[C@@H](O)C2(F)F)c(=O)n1 [gemcitabine] + CN(NC(=O)CC(=O)NN(C)C(=S)c1ccccc1)C(=S)c1ccccc1 [STA4783] (first compound 0.0004 µM, partner dose 0.006 µM)",91.6%,86.7%,100%,106%,89.9%,97.9%,104%,100%,89.5%,104%,88.2%,73%,58.1%,96.4%,58.7%,102%
"Nc1ccn([C@@H]2O[C@H](CO)[C@@H](O)C2(F)F)c(=O)n1 [gemcitabine] + C[C@@H]1CCN(C(=O)CC#N)C[C@@H]1N(C)c1ncnc2[nH]ccc12 [CP690550] (first compound 0.0004 µM, partner dose 1 µM)",106%,101%,93.6%,97.1%,106%,96.2%,113%,98.8%,105%,92.9%,105%,100%,75.5%,115%,76.1%,56.3%
"CC(=O)O[C@@]12CO[C@@H]1C[C@H](O)[C@@]1(C)C(=O)[C@H](O)C3=C(C)[C@@H](OC(=O)[C@H](O)[C@@H](NC(=O)OC(C)(C)C)c4ccccc4)C[C@@](O)([C@@H](OC(=O)c4ccccc4)[C@H]21)C3(C)C [Docetaxel] + Oc1nc(-c2ccc(C(F)(F)F)cc2)nc2c1CSCC2 [XAV939] (first compound 0.0001 µM, partner dose 2 µM)",44.3%,42.2%,34%,70%,45.8%,37.5%,30.1%,71.9%,50.7%,37.2%,60.2%,21%,32.7%,37.4%,81.9%,64.7%
"CC(=O)c1c(C)c2cnc(Nc3ccc(N4CCNCC4)cn3)nc2n(C2CCCC2)c1=O [palbociclib] + Cn1cncc1[C@@](N)(c1ccc(Cl)cc1)c1ccc2c(c1)c(-c1cccc(Cl)c1)cc(=O)n2C [tipifarnib] (first compound 0.04 µM, partner dose 0.01 µM)",71.4%,68.1%,68.5%,60.5%,69.1%,67.4%,63.5%,68.4%,67.5%,67.8%,66.1%,43.6%,81%,62.9%,56.2%,41.3%
"CC(=O)c1c(C)c2cnc(Nc3ccc(N4CCNCC4)cn3)nc2n(C2CCCC2)c1=O [palbociclib] + Cc1cc([N+](=O)[O-])ccc1NS(=O)(=O)c1cc(Cl)ccc1Cl [FH535] (first compound 0.04 µM, partner dose 1 µM)",74.4%,67.8%,72.5%,77.2%,77%,78.4%,60.6%,72.9%,70.8%,71.4%,66.3%,55.6%,72.1%,51.6%,75.5%,83.4%
"CC(=O)c1c(C)c2cnc(Nc3ccc(N4CCNCC4)cn3)nc2n(C2CCCC2)c1=O [palbociclib] + CO[C@@H]1[C@H](N(C)C(=O)c2ccccc2)C[C@H]2O[C@]1(C)n1c3ccccc3c3c4c(c5c6ccccc6n2c5c31)C(=O)NC4 [Midostaurin] (first compound 0.04 µM, partner dose 0.08 µM)",77.2%,69.2%,56.2%,87%,84.6%,70.2%,63.9%,64.1%,54.6%,72.1%,69.1%,51.2%,76.2%,73.2%,69.1%,73.9%
